Source: the supplement of paper PMC12217912
Some of the results follow. The full chains were built here from the parent and the listed change. Values near 0.05 are background.

B1: TEV protease; numbered along this chain (parent)
chain: MGESLFKGPRDYNPISSSICHLTNESDGHTTSLYGIGFGPFIITNKHLFRRNNGTLVVQSLHGVFKVKDTTTLQQHLVDGRDMIIIRMPKDFPPFPQKLKFREPQREERICLVTTNFQTKSMSSMVSDTSCTFPSGDGIFWKHWIQTKDGQCGSPLVSTRDGFIVGIHSASNFTNTNNYFTSVPKNFMELLTNQEAQQWVSGWRLNADSVLWGGHKVFMVKPEEPFQPVKEATQL

Variants of: B1
Experiment: raw area under fraction-flipped curve 0-4 h after induction (AUC4h, not background-subtracted), DNA-recorder readout of cleavage of the substrate (dimensionless); higher = more cleavage of the substrate by the protease variant
Details: temperature: 34 °C; time window: 0-4 h after rhamnose induction
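Also: Bxb1 expression induced with 0.2% (w/v) L-rhamnose at OD600 near 0.5, cultures sampled hourly, flipped fraction per protease–substrate barcode pair counted by paired-end Illumina sequencing.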

Variant | area with substrate ENDYFQS | area with substrate ENGYFQS | area with substrate ENIYFQS | area with substrate ENNYFQS | area with substrate ENQYFQS | area with substrate ENWYFQS | area with substrate ENEYFQS | area with substrate ENFYFQS | area with substrate ENKYFQS | area with substrate ENTYFQS | area with substrate ENVYFQS | area with substrate ENCYFQS | area with substrate ENPYFQS | area with substrate ENRYFQS | area with substrate ENSYFQS | area with substrate ENYYFQS | area with substrate ENHYFQS | area with substrate ENMYFQS
MGESLFKGPRDYNPISSSICHLTNESDGHTTSLQGIGFGPFIITNKHLFRRNNGTLVVQSLHGVFKVKDTTTLQQHLVDGRDMIIIRMPKDFPPFPQKLKFREPQREERICLVTTNFQTKSMSSMVSDTSCTFPSGDGIFWKHWIQTKDGQCGSPLVSTRDGFIVGIHSASNFTNTNNYFTSVPKNFMELLTNQEAQQWVSGWRLNADSVLWGGHKVFMVKPEEPFQPVKEATQL [Y34Q] | 0.057 | 0.0608 | 0.0779 | 0.0511 | 0.0549 | 0.0527 | – | – | – | – | – | – | – | – | – | – | – | –
MGESLFKGPRDYNPISSSICHLTNESDGHTTSLYGIGFGPFIITNKHLFRRNNGTLVVQSLHGVFKVKDTTTLQQQLVDGRDMIIIRMPKDFPPFPQKLKFREPQREERICLVTTNFQTKSMSSMVSDTSCTFPSGDGIFWKHWIQTKDGQCGSPLVSTRDGFIVGIHSASNFTNTNNYFTSVPKNFMELLTNQEAQQWVSGWRLNADSVLWGGHKVFMVKPEEPFQPVKEATQL [H76Q] | 0.0508 | 0.0689 | 0.087 | 0.0698 | 0.0683 | – | 0.0586 | 0.053 | 0.0593 | 0.0708 | 0.079 | – | – | – | – | – | – | –
MGESLFKGPRDYNPISSSICHLTNESDGHTTSLYGIGFGPFIITNKHLFRRNNGTLVVQSLHGVFKVKDTTTLQQHLVDGRDMIIIRMPKDFPPFPQKLKFREPQREERICLVTTNFQTKSMSSMVSDTSCTFPSGDGIFWKHWIQTKDGQCGSPLVSTRDGFIVGIHSASNFTNTNNYFTSVPKNFMELLTNQEAQQWVSGWRLNADSVLWGGHKVFMVDPEEPFQPVKEATQL [K221D] | 0.0595 | 0.0573 | 0.0777 | 0.0529 | 0.0584 | 0.0501 | 0.0685 | 0.0601 | – | 0.0567 | 0.0566 | 0.0668 | 0.0053 | 0.0656 | 0.064 | 0.0524 | – | –
MGESLFKGPRDYNPISSSICHLTNESDGHTTSLYGIGFGPFIITNKHLFRRNNGTLVVQSLHGVFKVKDTTTLQQHLVDGRDMIIIRMPKDFPPFPQKLKFREPQREERICLVTTNFQTKSMSSMVSDTSCTFPSGDGIFWKHWIQTKDGQCGSPLVSTRDGFTVGIHSASNFTNTNNYFTSVPKNFMELLTNQEAQQWVSGWRLNADSVLWGGHKVFMVKPEEPFQPVKEATQL [I164T] | 0.0568 | – | – | 0.0566 | – | – | 0.0616 | 0.0607 | 0.0661 | – | 0.0578 | 0.0377 | 0.0619 | – | 0.0566 | – | – | –
MGESLFKGPRDYNPISSSICHLTNESDGHTTSLYGIGFGPFIITNKHLFRRNNGTLVVQSLHGVFKVKDTTTLQQHLVDGRDMIIIRMPKDFPPFPQKLKFREPQREERICLVTTNFQTKSMSSMVSDTSCTFPSGDGIFWKHWIQTKDGQCGSPLVSTRDGFIVGIHSASNLTNTNNYFTSVPKNFMELLTNQEAQQWVSGWRLNADSVLWGGHKVFMVKPEEPFQPVKEATQL [F173L] | 0.0679 | – | 0.122 | 0.065 | 0.0665 | – | 0.0661 | – | 0.0262 | – | – | 0.0722 | – | – | 0.0599 | 0.0537 | 0.0551 | –
MGESLFKGPRDYNPISSSICHLTNESDGHTTSLYGIGFGPFIITNKHLFRRNNGTLVVQSLHGVFKVKDTTTLQQHLVDGRDMIIIRMPKDFPPFPQKLKFREPQREERICLVTTNFQTKSMSSMVSDTSCTFPSGDGIFWKHWIQTKDGQCGSPLVSTRDGFIVGIHSASNSTNTNNYFTSVPKNFMELLTNQEAQQWVSGWRLNADSVLWGGHKVFMVKPEEPFQPVKEATQL [F173S] | 0.0932 | 0.054 | – | 0.0664 | 0.0621 | – | 0.0776 | 0.0554 | 0.0711 | 0.0653 | 0.0685 | 0.0404 | 0.0861 | 0.0634 | 0.0858 | 0.0676 | 0.0656 | –
MGESLFKGPRDYNPISSSICHLTNESDGHTTSLYGIGFGPFIITNKHLFRRNNGTLVVQSLHGVFKVKDTTTLQQHLVDGRDMIIIRMPKDFPPFPQKLKFREPQREERICLVTTNFQTKSMSSMVSDTSCTFPSGDGIFWKHWIQTKDGQCGSPLVSTRDGFIVGIHSASNFTNTNNYFTSVPKNFMELLTNQEMQQWVSGWRLNADSVLWGGHKVFMVKPEEPFQPVKEATQL [A196M] | 0.0529 | 0.065 | – | 0.0641 | 0.0547 | 0.0693 | 0.0651 | 0.0281 | – | – | 0.0869 | 0.0772 | 0.05 | 0.0586 | – | – | 0.0548 | 0.0707
MGESLFQGPRDYNPISSSICHLTNESDGHTTSLYGIGFGPFIITNKHLFRRNNGTLVVQSLHGVFKVKDTTTLQQHLVDGRDMIIIRMPKDFPPFPQKLKFREPQREERICLVTTNFQTKSMSSMVSDTSCTFPSGDGIFWKHWIQTKDGQCGSPLVSTRDGFIVGIHSASNFTNTNNYFTSVPKNFMELLTNQEAQQWVSGWRLNADSVLWGGHKVFMVKPEEPFQPVKEATQL [K7Q] | 0.073 | – | 0.0985 | 0.0735 | 0.0478 | – | 0.0551 | 0.0667 | – | – | 0.0836 | – | 0.0553 | 0.0657 | 0.0566 | – | 0.063 | –
MGESLFKGPRDYNPISSSICHLTNESDGHTTSLYGIGFGPFIITNKHLFRRNNGYLVVQSLHGVFKVKDTTTLQQHLVDGRDMIIIRMPKDFPPFPQKLKFREPQREERICLVTTNFQTKSMSSMVSDTSCTFPSGDGIFWKHWIQTKDGQCGSPLVSTRDGFIVGIHSASNFTNTNNYFTSVPKNFMELLTNQEAQQWVSGWRLNADSVLWGGHKVFMVKPEEPFQPVKEATQL [T55Y] | 0.064 | 0.0615 | 0.101 | – | – | – | 0.0652 | 0.061 | – | 0.0574 | 0.071 | – | 0.0511 | – | 0.0594 | 0.0417 | 0.07 | –
